# Reference: the supplement of paper PMC8728848
# The other results are listed elsewhere or left out.
# Key:
# Test in all cases: glycan array binding signal (z-score within array); higher = stronger binding
# Conditions in all cases: glycan notation: IUPAC condensed, linker removed
# [1] = biological target: Fuc(a1-2)Gal
# Method in brief: (§1)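 Arrays were curated from the Consortium for Functional Glycomics database, 3228 in total, and kept only where the protein sequence was available. Binding is expressed as a within-array Z-score. This score was averaged across arrays of the same protein sequence at different concentrations or buffers and across linkers, and negative values can be read as non-binding.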
# [2] = biological target: Fuc(a1-2)Gal(b1-3)GalNAc
# Method in brief: as §1
# [3] = biological target: Fuc(a1-2)Gal(b1-3)GalNAc(a1-3)[Fuc(a1-2)]Gal(b1-4)Glc
# Method in brief: as §1
# [4] = biological target: Fuc(a1-2)Gal(b1-3)GalNAc(a1-3)[Fuc(a1-2)]Gal(b1-4)GlcNAc
# Method in brief: as §1
# [5] = biological target: Fuc(a1-2)Gal(b1-3)GalNAc(b1-3)Gal
# Method in brief: as §1
# [6] = biological target: Fuc(a1-2)Gal(b1-3)GalNAc(b1-3)Gal(a1-4)Gal(b1-4)Glc
# Method in brief: as §1
# [7] = biological target: Fuc(a1-2)Gal(b1-3)GalNAc(b1-4)[Neu5Ac(a2-3)]Gal(b1-4)Glc
# Method in brief: as §1
# [8] = biological target: Fuc(a1-2)Gal(b1-3)GlcNAc
# Method in brief: as §1
# [9] = biological target: Fuc(a1-2)Gal(b1-3)GlcNAc(b1-2)Man(a1-3)[Fuc(a1-2)Gal(b1-3)GlcNAc(b1-2)Man(a1-6)]Man(b1-4)GlcNAc(b1-4)GlcNAc
# Method in brief: as §1
# [10] = biological target: Fuc(a1-2)Gal(b1-3)GlcNAc(b1-2)Man(a1-3)[Fuc(a1-2)Gal(b1-3)GlcNAc(b1-2)Man(a1-6)]Man(b1-4)GlcNAc(b1-4)[Fuc(a1-6)]GlcNAc
# Method in brief: as §1
# [11] = biological target: Fuc(a1-2)Gal(b1-3)GlcNAc(b1-3)Gal(b1-4)Glc
# Method in brief: as §1
# [12] = biological target: Fuc(a1-2)Gal(b1-3)GlcNAc(b1-3)GalNAc
# Method in brief: as §1
# [13] = biological target: Fuc(a1-2)Gal(b1-3)GlcNAc(b1-3)[Fuc(a1-2)Gal(b1-3)GlcNAc(b1-6)]GalNAc
# Method in brief: as §1
# [14] = biological target: Fuc(a1-2)Gal(b1-3)GlcNAc(b1-3)[Gal(b1-4)GlcNAc(b1-6)]Gal(b1-4)Glc
# Method in brief: as §1
# [15] = biological target: Fuc(a1-2)Gal(b1-3)GlcNAc(b1-3)[Neu5Ac(a2-6)Gal(b1-4)GlcNAc(b1-6)]Gal(b1-4)Glc
# Method in brief: as §1
# [16] = biological target: Fuc(a1-2)Gal(b1-3)GlcNAc6S
# Method in brief: as §1
# [17] = biological target: Fuc(a1-2)Gal(b1-3)[Fuc(a1-4)]GlcNAc
# Method in brief: as §1
# [18] = biological target: Fuc(a1-2)Gal(b1-3)[Fuc(a1-4)]GlcNAc(b1-2)Man(a1-3)[Fuc(a1-2)Gal(b1-3)[Fuc(a1-4)]GlcNAc(b1-2)Man(a1-3)]Man(b1-4)GlcNAc(b1-4)GlcNAc
# Method in brief: as §1
# [19] = biological target: Fuc(a1-2)Gal(b1-3)[Fuc(a1-4)]GlcNAc(b1-2)Man(a1-3)[Fuc(a1-2)Gal(b1-3)[Fuc(a1-4)]GlcNAc(b1-2)Man(a1-6)]Man(b1-4)GlcNAc(b1-4)[Fuc(a1-6)]GlcNAc(b1-4)[Fuc(a1-6)]GlcNAc
# Method in brief: as §1
# [20] = biological target: Fuc(a1-2)Gal(b1-3)[Fuc(a1-4)]GlcNAc(b1-3)[Fuc(a1-3)[Gal(b1-4)]GlcNAc(b1-6)]Gal(b1-4)Glc
# Method in brief: as §1
# [21] = biological target: Fuc(a1-2)Gal(b1-3)[Fuc(a1-4)]GlcNAc(b1-3)[Gal(b1-4)GlcNAc(b1-6)]Gal(b1-4)Glc
# Method in brief: as §1
# [22] = biological target: Fuc(a1-2)Gal(b1-4)Fuc(a1-3)]GlcNAc(b1-2)Man(a1-3)[Fuc(a1-2)Gal(b1-4)[Fuc(a1-3)]GlcNAc(b1-2)Man(a1-6)]Man(b1-4)GlcNAc(b1-4)GlcNAc
# Method in brief: as §1
# [23] = biological target: Fuc(a1-2)Gal(b1-4)Glc
# Method in brief: as §1
# [24] = biological target: Fuc(a1-2)Gal(b1-4)Glc6S
# Method in brief: as §1
# [25] = biological target: Fuc(a1-2)Gal(b1-4)GlcNAc
# Method in brief: as §1
# [26] = biological target: Fuc(a1-2)Gal(b1-4)GlcNAc(b1-2)Man
# Method in brief: as §1
# [27] = biological target: Fuc(a1-2)Gal(b1-4)GlcNAc(b1-2)Man(a1-3)[Fuc(a1-2)Gal(b1-4)GlcNAc(b1-2)Man(a1-6)]Man(b1-4)GlcNAc(b1-4)GlcNAc
# Method in brief: as §1
# [28] = biological target: Fuc(a1-2)Gal(b1-4)GlcNAc(b1-2)Man(a1-3)[Fuc(a1-2)Gal(b1-4)GlcNAc(b1-2)Man(a1-6)]Man(b1-4)GlcNAc(b1-4)[Fuc(a1-6)]GlcNAc
# Method in brief: as §1
# [29] = biological target: Fuc(a1-2)Gal(b1-4)GlcNAc(b1-2)[Fuc(a1-2)Gal(b1-4)GlcNAc(b1-4)]Man(a1-3)[Fuc(a1-2)Gal(b1-4)GlcNAc(b1-2)Man(a1-6)]Man(b1-4)GlcNAc(b1-4)GlcNAc
# Method in brief: as §1
# [30] = biological target: Fuc(a1-2)Gal(b1-4)GlcNAc(b1-3)Gal(b1-4)GlcNAc
# Method in brief: as §1
# [31] = biological target: Fuc(a1-2)Gal(b1-4)GlcNAc(b1-3)Gal(b1-4)GlcNAc(b1-2)Man(a1-3)[Fuc(a1-2)Gal(b1-4)GlcNAc(b1-3)Gal(b1-4)GlcNAc(b1-2)Man(a1-6)]Man(b1-4)GlcNAc(b1-4)GlcNAc
# Method in brief: as §1
# [32] = biological target: Fuc(a1-2)Gal(b1-4)GlcNAc(b1-3)Gal(b1-4)GlcNAc(b1-3)Gal(b1-4)GlcNAc
# Method in brief: as §1
# [33] = biological target: Fuc(a1-2)Gal(b1-4)GlcNAc(b1-3)GalNAc
# Method in brief: as §1
# [34] = biological target: Fuc(a1-2)Gal(b1-4)GlcNAc(b1-3)[Fuc(a1-2)Gal(b1-4)GlcNAc(b1-6)]GalNAc
# Method in brief: as §1
# [35] = biological target: Fuc(a1-2)Gal(b1-4)GlcNAc(b1-3)[Fuc(a1-3)[Gal(b1-4)]GlcNAc(b1-6)]Gal(b1-4)Glc
# Method in brief: as §1
# [36] = biological target: Fuc(a1-2)Gal(b1-4)GlcNAc(b1-6)GalNAc
# Method in brief: as §1
# [37] = biological target: Fuc(a1-2)Gal(b1-4)GlcNAc6S
# Method in brief: as §1
# [38] = biological target: Fuc(a1-2)Gal(b1-4)[Fuc(a1-3)]GlcNAc
# Method in brief: as §1
# [39] = biological target: Fuc(a1-2)Gal(b1-4)[Fuc(a1-3)]GlcNAc(b1-2)Man(a1-3)[Fuc(a1-2)Gal(b1-4)[Fuc(a1-3)]GlcNAc(b1-2)Man(a1-6)]Man(b1-4)GlcNAc(b1-4)[Fuc(a1-6)]GlcNAc
# Method in brief: as §1
# [40] = biological target: Fuc(a1-2)Gal(b1-4)[Fuc(a1-3)]GlcNAc(b1-2)[Fuc(a1-2)Gal(b1-4)[Fuc(a1-3)]GlcNAc(b1-4)]Man(a1-3)[Fuc(a1-2)Gal(b1-4)[Fuc(a1-3)]GlcNAc(b1-2)Man(a1-6)]Man(b1-4)GlcNAc(b1-4)GlcNAc
# Method in brief: as §1
# [41] = biological target: Fuc(a1-2)Gal(b1-4)[Fuc(a1-3)]GlcNAc(b1-3)Gal(b1-4)[Fuc(a1-3)]GlcNAc
# Method in brief: as §1
# [42] = biological target: Fuc(a1-2)Gal(b1-4)[Fuc(a1-3)]GlcNAc(b1-3)Gal(b1-4)[Fuc(a1-3)]GlcNAc(b1-3)Gal(b1-4)[Fuc(a1-3)]GlcNAc
# Method in brief: as §1
# [43] = biological target: Fuc(a1-2)Gal(b1-4)[Fuc(a1-3)]GlcNAc(b1-3)GalNAc
# Method in brief: as §1
# [44] = biological target: Fuc(a1-2)Gal(b1-4)[Fuc(a1-3)]GlcNAc(b1-3)[Neu5Ac(a2-6)Gal(b1-4)GlcNAc(b1-6)]Gal(b1-4)Glc
# Method in brief: as §1
# [45] = biological target: Fuc(a1-2)Gal3S(b1-4)GlcNAc
# Method in brief: as §1
binder,measurement,setting,value
CTAEGIKKFEGDGYELFKDNFPAGEKFDNDDTNDQFYTVIF [MUB40 (Lactobacillus reuteri)],glycan array binding signal (z-score),[1],-0.147
same,glycan array binding signal (z-score),[2],1.56
same,glycan array binding signal (z-score),[3],-0.41
same,glycan array binding signal (z-score),[4],-0.399
same,glycan array binding signal (z-score),[5],-0.251
same,glycan array binding signal (z-score),[6],-0.246
same,glycan array binding signal (z-score),[7],-0.225
same,glycan array binding signal (z-score),[8],-0.279
same,glycan array binding signal (z-score),[9],-0.598
same,glycan array binding signal (z-score),[10],-0.613
same,glycan array binding signal (z-score),[11],-0.164
same,glycan array binding signal (z-score),[12],-0.314
same,glycan array binding signal (z-score),[13],-0.391
same,glycan array binding signal (z-score),[14],0.224
same,glycan array binding signal (z-score),[15],0.536
same,glycan array binding signal (z-score),[16],0.088
same,glycan array binding signal (z-score),[17],-0.273
same,glycan array binding signal (z-score),[18],0.536
same,glycan array binding signal (z-score),[19],0.016
same,glycan array binding signal (z-score),[20],-0.461
same,glycan array binding signal (z-score),[21],0.363
same,glycan array binding signal (z-score),[22],0.028
same,glycan array binding signal (z-score),[23],-0.432
same,glycan array binding signal (z-score),[24],-0.486
same,glycan array binding signal (z-score),[25],-0.562
same,glycan array binding signal (z-score),[26],-0.45
same,glycan array binding signal (z-score),[27],-0.205
same,glycan array binding signal (z-score),[28],-0.186
same,glycan array binding signal (z-score),[29],-0.014
same,glycan array binding signal (z-score),[30],-0.145
same,glycan array binding signal (z-score),[31],0.648
same,glycan array binding signal (z-score),[32],-0.491
same,glycan array binding signal (z-score),[33],0.7
same,glycan array binding signal (z-score),[34],-0.357
same,glycan array binding signal (z-score),[35],-0.453
same,glycan array binding signal (z-score),[36],-0.677
same,glycan array binding signal (z-score),[37],-0.389
same,glycan array binding signal (z-score),[38],-0.174
same,glycan array binding signal (z-score),[39],0.237
same,glycan array binding signal (z-score),[40],-0.447
same,glycan array binding signal (z-score),[41],-0.174
same,glycan array binding signal (z-score),[42],-0.597
same,glycan array binding signal (z-score),[43],3.56
same,glycan array binding signal (z-score),[44],-0.177
same,glycan array binding signal (z-score),[45],-0.186
